# Results as given in the supplement of paper PMC4166925.
# ± gives the standard deviation of the averaged measurements. In all, about 33,000 sequences were measured (“E-score (dimensionless, -0.5 to 0.5)”: median about -0.046, highest 2% from about 0.36 on). The list shows a part of the results.
# System: T1, SpTbr T-box DNA-binding domain (GST fusion)
# T1 sequence: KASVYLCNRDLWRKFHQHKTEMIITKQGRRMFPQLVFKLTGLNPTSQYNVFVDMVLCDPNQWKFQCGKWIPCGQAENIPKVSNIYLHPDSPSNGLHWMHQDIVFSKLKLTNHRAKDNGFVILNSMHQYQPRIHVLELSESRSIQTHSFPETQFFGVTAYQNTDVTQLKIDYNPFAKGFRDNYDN
# Test: PBM E-score of 8-mer (E-score (dimensionless, -0.5 to 0.5)); Tbr is Tbrain of the sea star Patiria miniata (Pm) or the sea urchin Strongylocentrotus purpuratus (Sp); higher = stronger binding preference; most listed sequences are background and not binding sites
# Conditions: the construct has about 5 more residues each side
# Procedure: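 Universal protein-binding microarray (Agilent AMADID 016060, 60-bp probes with a 35-bp variable region) incubated with 200 nM GST-fused Strongylocentrotus purpuratus Tbr T-box DNA-binding domain (residues 362-554) in PBS pH 7.5. Scored for every ungapped 8-mer (given with its reverse complement) as E-score (range -0.5 to 0.5; >0.45 counts as bound) and Z-score of median probe intensity. Two replicate arrays (datasets 1 and 2).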
# 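Further: protein at 200 nM in PBS on universal double-stranded arrays.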
row,Sequence,PBM E-score of 8-mer
1,CACTCCAC,0.214 ± 0.027
2,AGACTCCT,-0.214 ± 0.013
3,ATCTAGGC,-0.3036 ± 0.00067
4,TCACGAAA,0.14744 ± 0.00011
5,ACGCTTCG,0.245 ± 0.018
6,CGCCGGCC,-0.0236 ± 0.021
7,ACTTTCTG,0.00522 ± 0.034
8,CGACGAAC,0.0478 ± 0.062
9,CGCTTATA,-0.138 ± 0.012
10,CGTCTTTC,0.00271 ± 0.12
11,AAGCAAAG,-0.0254 ± 0.0077
12,AGATGCCC,-0.161 ± 0.029
13,CTGTGTCA,0.247 ± 0.015
14,GCAGTAGA,-0.136 ± 0.054
15,CCTATTAC,0.0166 ± 0.023
16,CGCGATCA,0.268 ± 0.023
17,CTCTCCAC,0.0528 ± 0.073
18,ACGTTTCT,-0.0766 ± 0.042
19,GCGAATGA,0.231 ± 0.038
20,AATCCAAC,0.014 ± 0.057
21,ACGACCCT,-0.126 ± 0.062
22,CACCTCTG,0.3929 ± 0.0014

row,Sequence,PBM E-score of 8-mer
1,AGGTGGTA,0.405 ± 0.011
2,CGTAGTTC,-0.0821 ± 0.066
3,GGTTAAAC,-0.165 ± 0.0043
4,ATTTGGGC,-0.181 ± 0.017
5,GCCGAGGC,-0.0254 ± 0.021
6,CGAGCACG,-0.0883 ± 0.0044
7,AGCGAGAT,0.115 ± 0.032
8,ATCGCTTC,0.0661 ± 0.045
9,CTTAAGGC,-0.137 ± 0.048
10,GCAAACCA,-0.125 ± 0.018
11,ATCCTAGG,-0.228 ± 0.0046
12,CCTACAGA,0.00408 ± 0.039
13,ACCCCGGT,-0.0545 ± 0.1
14,CTGGAGCC,-0.129 ± 0.002
15,AATGGGGT,0.0277 ± 0.0059
16,CAGATCTC,-0.147 ± 0.011
17,AGGCTCCC,-0.131 ± 0.031
18,ACCAAAAA,-0.101 ± 0.044
19,AGCACACC,0.325 ± 0.014
20,AACCAAAC,-0.0869 ± 0.019
21,ATTTAGGC,-0.0463 ± 0.057
22,GACGTCTC,-0.243 ± 0.019

row,Sequence,PBM E-score of 8-mer
1,GAGTGAAA,0.0605 ± 0.051
2,TCCAACCA,-0.158 ± 0.0034
3,ATCTAGGG,-0.144 ± 0.0067
4,ATCGTGCC,-0.034 ± 0.062
5,CTGAGCAA,-0.0753 ± 0.059
6,CCTTGCAC,0.172 ± 0.0042
7,GAACGTTC,0.103 ± 0.089
8,GAGCGTAC,-0.177 ± 0.088
9,ATTGCCAC,0.232 ± 0.0046
10,AGCGATTA,-0.0349 ± 0.049
11,AGCCGAAG,-0.259 ± 0.046
12,ATCCATGA,-0.304 ± 0.058
13,CAGGACCA,-0.184 ± 0.065
14,CCGTGGCC,-0.0673 ± 0.016
15,CTGAAAAG,-0.065 ± 0.042
16,ACCAGCTA,-0.0508 ± 0.0037
17,ATTATCCC,-0.108 ± 0.0045
18,ATGCGCAA,-0.0169 ± 0.032
19,CGTGAAAG,0.329 ± 0.0083
20,ACTGCCCA,-0.115 ± 0.092
21,CTAAGTGC,0.191 ± 0.017
22,CCATAGGG,-0.0592 ± 0.069

row,Sequence,PBM E-score of 8-mer
1,GTCTGCGA,0.015 ± 0.1
2,AGATGATC,0.000165 ± 0.08
3,AGTCGTCG,0.0377 ± 0.057
4,TGCAAGCA,-0.0139 ± 0.019
5,CGTCATTC,-0.0264 ± 0.0013
6,CATGCTCA,0.0407 ± 0.052
7,AGCCTTCG,-0.0252 ± 0.058
8,CATGCCTC,-0.165 ± 0.086
9,GTAGCTAA,-0.102 ± 0.037
10,CAGGCAGA,-0.155 ± 0.042
11,CTAGCGGC,0.00847 ± 0.04
12,GCCGCGTA,-0.00698 ± 0.037
13,AGTAGGCC,-0.21 ± 0.015
14,AACTGGTC,-0.224 ± 0.026
15,AGAGGGTG,0.308 ± 0.0036
16,CGAGGATA,-0.107 ± 0.0043
17,ATCGTGGA,-0.0288 ± 0.0096
18,GAAGCGAC,0.105 ± 0.022
19,AAGCCTAT,-0.166 ± 0.025
20,AACCAAGG,-0.3061 ± 0.0024
